{
  "source": "PubChem BioAssay (Tox21)",
  "key": {"[1]": {"target": "Peroxisome proliferator-activated receptor gamma (Homo sapiens) (UniProt P37231)", "sequence (P37231 whole entry, looked up)": "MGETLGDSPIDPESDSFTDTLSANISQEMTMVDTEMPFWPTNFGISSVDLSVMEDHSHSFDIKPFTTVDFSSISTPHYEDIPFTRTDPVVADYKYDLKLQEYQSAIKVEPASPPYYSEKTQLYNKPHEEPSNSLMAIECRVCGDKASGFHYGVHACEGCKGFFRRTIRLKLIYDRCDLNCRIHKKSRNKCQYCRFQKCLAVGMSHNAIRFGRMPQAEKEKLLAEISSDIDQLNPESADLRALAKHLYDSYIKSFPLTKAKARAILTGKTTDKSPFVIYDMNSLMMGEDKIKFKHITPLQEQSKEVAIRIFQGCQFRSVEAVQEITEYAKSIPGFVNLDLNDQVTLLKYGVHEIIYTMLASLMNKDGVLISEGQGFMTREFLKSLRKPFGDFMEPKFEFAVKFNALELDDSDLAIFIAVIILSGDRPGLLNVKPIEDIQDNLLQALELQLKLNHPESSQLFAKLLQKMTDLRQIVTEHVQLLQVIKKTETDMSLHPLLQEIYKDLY", "assay": "qHTS assay to identify small molecule antagonists of the peroxisome proliferator-activated receptor gamma (PPARg) signaling pathway (AID 743191); further: nearly all actives have a fitted effect of over 30% in size; further: potency means the concentration at half of the fitted maximal effect", "settings": "HEK293H PPARg-UAS-bla, beta-lactamase ratio, antagonist, 17 h; ratio activity, negative = inhibition: at 62.6 µM (top of the series) unless noted", "in_short": "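GeneBLAzer PPARg UAS-bla HEK293H cells, 5 h post-plating, exposed to compounds 17 h at 37C. LiveBLAzer B/G FRET substrate added for 1 h at room temperature; beta-lactamase reporter read by fluorescence intensity.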"}, "[2]": {"assay": "qHTS assay for small molecule agonists of the antioxidant response element (ARE) signaling pathway (AID 743202; active means well fitted activation curve with a large enough effect in the signal ratio in the repeat runs, not every such curve was filed as active; inconclusive means weak or mixed curves, or effect the other way; inactive means no such curve, though single readings can be large or run the other way; the % refers to the signal ratio; further: potency means the concentration at half of the fitted maximal effect)", "settings": "HepG2 ARE-bla reporter, beta-lactamase FRET, 16 h; activation: at 73.3 µM (top of the series) unless noted", "in_short": "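Agonist mode reporter screen: HepG2 cells with ARE-controlled beta-lactamase are incubated with test compounds for 16 h at 37 C, and beta-lactamase activity is measured as fluorescence of cleaved B/G FRET substrate.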"}, "[3]": {"target": "Vitamin D3 receptor (Homo sapiens) (UniProt P11473)", "sequence (P11473 whole entry, looked up)": "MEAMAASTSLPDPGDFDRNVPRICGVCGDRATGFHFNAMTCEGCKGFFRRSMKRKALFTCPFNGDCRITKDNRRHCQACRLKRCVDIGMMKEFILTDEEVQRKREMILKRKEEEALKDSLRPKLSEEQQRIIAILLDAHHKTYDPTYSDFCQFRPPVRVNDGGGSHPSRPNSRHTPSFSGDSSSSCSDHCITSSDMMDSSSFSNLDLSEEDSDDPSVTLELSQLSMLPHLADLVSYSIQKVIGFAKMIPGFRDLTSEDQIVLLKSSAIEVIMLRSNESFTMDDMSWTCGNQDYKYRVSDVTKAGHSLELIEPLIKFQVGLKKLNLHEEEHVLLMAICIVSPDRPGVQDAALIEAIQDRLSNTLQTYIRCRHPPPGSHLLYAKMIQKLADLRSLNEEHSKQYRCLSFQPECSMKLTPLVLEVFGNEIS", "assay": "qHTS assay to identify small molecule agonists of the vitamin D receptor (VDR) signaling pathway (AID 743222); further: potency means the concentration at half of the fitted maximal effect", "settings": "HEK293T VDR-UAS-bla, beta-lactamase FRET ratio, 16 h; activation: at 63.5 µM (top of the series) unless noted", "in_short": "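In VDR-bla cells, compound-induced beta-lactamase expression is quantified by FRET substrate fluorescence. Treatment lasts 16 h at 37C; substrate develops 2 h at room temperature.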"}, "[4]": {"target": "Vitamin D3 receptor (Homo sapiens) (UniProt P11473)", "assay": "qHTS assay to identify small molecule antagonists of the vitamin D receptor (VDR) signaling pathway (AID 743223; active means well fitted inhibition curve with a large enough effect in the signal ratio in the repeat runs, not every such curve was filed as active; inconclusive means weak or mixed curves, or effect the other way; inactive means no such curve, though single readings can be large or run the other way; the % refers to the signal ratio)", "settings": "VDR-UAS-bla HEK293T, beta-lactamase FRET ratio, 16 h; activity change, negative = inhibition: at 61 µM (top of the series) unless noted", "in_short": "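Agonist 1alpha,25-dihydroxyvitamin D3 (3 nM in well) was added with each compound to VDR-bla cells preincubated 4 h. Cells stood 16 h at 37C, then FRET substrate 2 h at room temperature; fluorescence intensity recorded.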"}, "[5]": {"target": "Bile acid receptor (Homo sapiens) (UniProt Q96RI1)", "sequence (Q96RI1 whole entry, looked up)": "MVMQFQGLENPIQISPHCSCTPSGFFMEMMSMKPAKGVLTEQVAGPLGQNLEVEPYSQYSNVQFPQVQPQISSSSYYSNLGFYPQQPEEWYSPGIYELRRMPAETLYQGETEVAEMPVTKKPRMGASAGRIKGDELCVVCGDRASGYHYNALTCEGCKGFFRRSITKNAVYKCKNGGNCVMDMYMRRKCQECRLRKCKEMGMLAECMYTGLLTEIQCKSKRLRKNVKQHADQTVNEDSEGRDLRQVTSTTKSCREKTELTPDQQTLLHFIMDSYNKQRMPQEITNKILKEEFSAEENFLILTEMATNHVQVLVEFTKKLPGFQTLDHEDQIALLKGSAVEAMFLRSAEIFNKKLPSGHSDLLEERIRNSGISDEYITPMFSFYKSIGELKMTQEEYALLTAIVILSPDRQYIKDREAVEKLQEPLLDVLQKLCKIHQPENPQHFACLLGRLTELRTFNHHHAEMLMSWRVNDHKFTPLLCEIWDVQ", "assay": "qHTS assay to identify small molecule antagonists of the farnesoid-X-receptor (FXR) signaling pathway (AID 743217; active means well fitted inhibition curve with a large enough effect in the signal ratio in the repeat runs, not every such curve was filed as active; inconclusive means weak or mixed curves, or effect the other way; inactive means no such curve, though single readings can be large or run the other way; the % refers to the signal ratio)", "settings": "HEK293T FXR-UAS-bla, beta-lactamase ratio, CDCA-stimulated, 16 h; activity change, negative = inhibition: at 62.6 µM (top of the series) unless noted", "in_short": "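GeneBLAzer FXR-UAS-bla HEK 293T, CDCA-stimulated (50 uM final). Compound treatment 16 h, 37 °C. Detection: beta-lactamase cleavage of B/G FRET substrate, fluorescence.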"}, "[6]": {"assay": "qHTS assay for small molecule activators of the heat shock response signaling pathway - cell viability counter screen (AID 743209; active means well fitted curve in the direction sought with a large enough effect in the repeat runs; inconclusive means weak or mixed curves; inactive means no such curve, though single readings can be large; an effect the other way counts as inactive or inconclusive; further: nearly all actives have a fitted effect of over 50% in size)", "settings": "HSE-bla HeLa viability, CellTiter-Glo luminescence, 5 h; activity change, negative = cytotoxicity: at 62.6 µM (top of the series) unless noted", "in_short": "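Readout: CellTiter-Glo luminescence, 30 min at room temperature. System: HSE-bla HeLa cells, 1500/well, plated overnight. Treatment: compounds in DMSO, 5 h at 37 C.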"}, "[7]": {"target": "Peroxisome proliferator-activated receptor delta (Homo sapiens) (UniProt Q03181)", "sequence (Q03181 whole entry, looked up)": "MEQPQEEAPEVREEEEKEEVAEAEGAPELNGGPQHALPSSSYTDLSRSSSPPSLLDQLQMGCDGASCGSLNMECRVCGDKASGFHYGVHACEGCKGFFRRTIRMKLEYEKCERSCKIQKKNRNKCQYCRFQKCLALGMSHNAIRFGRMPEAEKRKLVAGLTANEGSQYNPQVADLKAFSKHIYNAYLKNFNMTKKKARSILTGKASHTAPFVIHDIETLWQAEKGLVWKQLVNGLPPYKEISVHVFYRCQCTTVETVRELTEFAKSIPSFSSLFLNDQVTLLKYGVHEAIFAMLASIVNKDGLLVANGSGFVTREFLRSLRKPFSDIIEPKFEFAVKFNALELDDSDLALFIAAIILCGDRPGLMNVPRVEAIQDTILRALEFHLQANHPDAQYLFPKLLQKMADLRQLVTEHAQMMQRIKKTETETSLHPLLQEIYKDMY", "assay": "qHTS assay to identify small molecule antagonists of the peroxisome proliferator-activated receptor delta (PPARd) signaling pathway (AID 743215; active means well fitted inhibition curve with a large enough effect in the signal ratio in the repeat runs, not every such curve was filed as active; inconclusive means weak or mixed curves, or effect the other way; inactive means no such curve, though single readings can be large or run the other way; the % refers to the signal ratio)", "settings": "HEK293H PPARd-UAS-bla, beta-lactamase FRET ratio, antagonist, 17 h; ratio activity, negative = inhibition: at 62 µM (top of the series) unless noted", "in_short": "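HEK293H UAS-bla, PPARd; agonist L165041 300 nM final with cpd in DMSO; 37 C 17 h; FRET substrate, RT 2 h; fluorescence intensity.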"}, "[8]": {"assay": "qHTS assay for small molecule activators of the heat shock response signaling pathway (AID 743210; active means well fitted activation curve with a large enough effect in the signal ratio in the repeat runs, with a control signal flat, not every such curve was filed as active; inconclusive means weak or mixed curves; the % refers to the signal ratio; further: potency means the concentration at half of the fitted maximal effect)", "settings": "HeLa HSE-bla reporter, beta-lactamase ratio, 5 h; activation: at 62.6 µM (top of the series)", "in_short": "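Quantitative high-throughput format using an engineered HeLa line in which heat shock response elements drive beta-lactamase; after 5 h with compound, cells received a B/G FRET substrate and fluorescence was read.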"}, "[9]": {"assay": "qHTS assay to identify small molecule agonists of the farnesoid-X-receptor (FXR) signaling pathway - cell viability counter screen (AID 743218; active means well fitted curve in the direction sought with a large enough effect in the repeat runs; inconclusive means weak or mixed curves; inactive means no such curve, though single readings can be large; an effect the other way counts as inactive or inconclusive; further: nearly all actives have a fitted effect of over 45% in size; further: potency means the concentration at half of the fitted maximal effect)", "settings": "FXR-bla HEK293T viability, CellTiter-Glo luminescence, 16 h; viability change, negative = cytotoxic: at 62.6 µM (top of the series) unless noted", "in_short": "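Parallel cytotoxicity test: compound-treated (16 h, 37 C) HEK 293T FXR-bla reporter cells were lysed with CellTiter-Glo and luminescence recorded.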"}, "[10]": {"assay": "qHTS assay to identify small molecule antagonists of the vitamin D receptor (VDR) signaling pathway - cell viability counter screen (AID 743225; active means well fitted curve in the direction sought with a large enough effect in the repeat runs; inconclusive means weak or mixed curves; inactive means no such curve, though single readings can be large; an effect the other way counts as inactive or inconclusive; further: potency means the concentration at half of the fitted maximal effect; nearly all actives have a fitted effect of over 50% in size)", "settings": "VDR-bla HEK293T viability, CellTiter-Glo luminescence, 16 h; viability change, negative = cytotoxic: at 61 µM (top of the series) unless noted", "in_short": "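Luminescent cell viability (CellTiter-Glo) in VDR-bla HEK 293T cells after 16 h compound exposure at 37C in the presence of 3 nM final 1-alpha,25-dihydroxy vitamin D3.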"}, "[11]": {"assay": "qHTS assay to identify small molecule agonists of the vitamin D receptor (VDR) signaling pathway - cell viability counter screen (AID 743224; active means well fitted curve in the direction sought with a large enough effect in the repeat runs; inconclusive means weak or mixed curves; inactive means no such curve, though single readings can be large; an effect the other way counts as inactive or inconclusive; further: nearly all actives have a fitted effect of over 50% in size; further: potency means the concentration at half of the fitted maximal effect)", "in_short": "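Plated VDR-bla cells (4 h, 37C) received compound, incubated 16 h, then LiveBLAzer substrate 2 h RT; CellTiter-Glo added afterwards, luminescence read at 30 min.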"}, "[12]": {"assay": "qHTS assay to identify small molecule antagonists of the peroxisome proliferator-activated receptor delta (PPARd) signaling pathway - cell viability counter screen (AID 743213; active means well fitted curve in the direction sought with a large enough effect in the repeat runs; inconclusive means weak or mixed curves; inactive means no such curve, though single readings can be large; an effect the other way counts as inactive or inconclusive; further: potency means the concentration at half of the fitted maximal effect; nearly all actives have a fitted effect of over 50% in size)", "settings": "PPARd-bla HEK293H viability, CellTiter-Glo luminescence, 17 h; viability change, negative = cytotoxic: at 62 µM (top of the series) unless noted", "in_short": "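In this counter screen, HEK293H cells carrying a UAS-beta-lactamase reporter are co-treated with test compounds and 300 nM L165041 (final) for 17 h at 37 C; cell viability is quantified by CellTiter-Glo luminescence.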"}, "[13]": {"target": "Bile acid receptor (Homo sapiens) (UniProt Q96RI1)", "assay": "qHTS assay to identify small molecule agonists of the farnesoid-X-receptor (FXR) signaling pathway (AID 743220; active means well fitted activation curve with a large enough effect in the signal ratio in the repeat runs, not every such curve was filed as active; inconclusive means weak or mixed curves, or effect the other way; the % refers to the signal ratio; further: potency means the concentration at half of the fitted maximal effect)", "settings": "HEK293T FXR-UAS-bla, beta-lactamase FRET ratio, 16 h; activation: at 62.6 µM (top of the series) unless noted", "in_short": "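Beta-lactamase reporter under UAS control in GeneBLAzer FXR HEK 293T cells (5000/well) measured with LiveBLAzer FRET substrate after 2 h at room temperature. Compound exposure lasted 16 h at 37C.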"}},
  "note": "The shares of active, inactive and inconclusive entries below differ from those in the screen. Where a call stands in place of a potency, no number is given. For part of these data: A potency beside an inconclusive call is a rough fit, not a confirmed value. Calls of active or inactive are those of the source. Unless noted, the call rests on the fitted dose curve. Tags describe the fitted curve by direction and shape or compound fluorescence and quenching.",
  "data": [
    {"compound": "CC(Cl)(Cl)C(=O)O", "values": [
      {"measurement": "ratio activity, negative = inhibition", "setting": "[1]", "result": "inconclusive: 4.88%"},
      {"measurement": "Potency", "setting": "[2]", "result": "inactive"},
      {"measurement": "Potency", "setting": "[3]", "result": "inactive"},
      {"measurement": "Potency", "setting": "[4]", "result": "inactive"}
    ]},
    {"compound": "O=C1OC(=O)C2C1C1(Cl)C(Cl)=C(Cl)C2(Cl)C1(Cl)Cl", "note": "(configuration not stated)", "values": [
      {"measurement": "Potency", "setting": "[1]", "result": "inactive"},
      {"measurement": "Potency", "setting": "[2]", "result": "inactive"},
      {"measurement": "Potency", "setting": "[5]", "result": "inactive"},
      {"measurement": "activity change, negative = inhibition", "setting": "[4]", "result": "inconclusive: -1.96% [at 78.8 µM]"}
    ]},
    {"compound": "COCCl", "values": [
      {"measurement": "Potency", "setting": "[1]", "result": "inactive"},
      {"measurement": "Potency", "setting": "[6]", "result": "inactive"},
      {"measurement": "Potency", "setting": "[5]", "result": "inactive"},
      {"measurement": "Potency", "setting": "[4]", "result": "inactive"}
    ]},
    {"compound": "CCOc1nc(C(Cl)(Cl)Cl)ns1", "values": [
      {"measurement": "ratio activity, negative = inhibition", "setting": "[1]", "result": "inconclusive: 1.61%"},
      {"measurement": "Potency", "setting": "[2]", "result": "inactive"},
      {"measurement": "Potency", "setting": "[7]", "result": "inactive"}
    ]},
    {"compound": "c1ccc(N2CCNCC2)cc1", "values": [
      {"measurement": "ratio activity, negative = inhibition", "setting": "[1]", "result": "inconclusive: -6.5%"},
      {"measurement": "Potency", "setting": "[8]", "result": "inconclusive: 37.6 µM [activator, partial curve, poor fit]"}
    ]},
    {"compound": "C[C@H]1C(=O)O[C@@H]2CCN3CC=C(COC(=O)[C@](C)(O)[C@]1(C)O)[C@H]23", "values": [
      {"measurement": "ratio activity, negative = inhibition", "setting": "[1]", "result": "inconclusive: 7.94% [at 81.1 µM]"},
      {"measurement": "Potency", "setting": "[6]", "result": "inactive"},
      {"measurement": "Potency", "setting": "[5]", "result": "inactive"},
      {"measurement": "Potency", "setting": "[9]", "result": "inactive"},
      {"measurement": "Potency", "setting": "[3]", "result": "inactive"},
      {"measurement": "Potency", "setting": "[10]", "result": "inconclusive: 4.36 µM [cytotoxic, partial curve, poor fit]"}
    ]},
    {"compound": "COC(=O)C(C)N(C(=O)Cc1ccccc1)c1c(C)cccc1C", "note": "(configuration not stated)", "values": [
      {"measurement": "Potency", "setting": "[1]", "result": "inactive"},
      {"measurement": "Potency", "setting": "[2]", "result": "inconclusive: 54.5 µM [rising, partial curve]"},
      {"measurement": "Potency", "setting": "[3]", "result": "inconclusive: 43.6 µM [rising, partial curve, poor fit]"},
      {"measurement": "Potency", "setting": "[11]", "result": "inactive"}
    ]},
    {"compound": "CC(C)C(Br)C(=O)NC(N)=O", "note": "(configuration not stated)", "values": [
      {"measurement": "ratio activity, negative = inhibition", "setting": "[1]", "result": "inconclusive: 35%"},
      {"measurement": "activation", "setting": "[2]", "result": "inconclusive: 41.4%"},
      {"measurement": "Potency", "setting": "[11]", "result": "inactive"}
    ]},
    {"compound": "CC(=O)OC(c1ccccc1)C(Cl)(Cl)Cl", "note": "(configuration not stated)", "values": [
      {"measurement": "Potency", "setting": "[1]", "result": "inconclusive: 27.5 µM [activator, partial curve, poor fit]"},
      {"measurement": "Potency", "setting": "[2]", "result": "inactive"},
      {"measurement": "Potency", "setting": "[10]", "result": "inconclusive: 17.4 µM [cytotoxic, partial curve, poor fit]"}
    ]},
    {"compound": "Brc1ccccc1", "values": [
      {"measurement": "Potency", "setting": "[1]", "result": "inactive"},
      {"measurement": "Potency", "setting": "[2]", "result": "inactive"},
      {"measurement": "activity change, negative = inhibition", "setting": "[4]", "result": "inconclusive: 13.3%"}
    ]},
    {"compound": "CC(C)CP(=S)(S)CC(C)C", "values": [
      {"measurement": "ratio activity, negative = inhibition", "setting": "[1]", "result": "inconclusive: -4.68%"},
      {"measurement": "Potency", "setting": "[8]", "result": "inactive"},
      {"measurement": "Potency", "setting": "[12]", "result": "inconclusive: 12.3 µM [cytotoxic, single point]"},
      {"measurement": "Potency", "setting": "[9]", "result": "inconclusive: 0.0436 µM [rising, full curve, poor fit]"},
      {"measurement": "Potency", "setting": "[13]", "result": "inconclusive: 1.55 µM [activator, full curve, poor fit]"},
      {"measurement": "Potency", "setting": "[11]", "result": "inconclusive: 17.4 µM [cytotoxic, full curve]"}
    ]}
  ]
}
